Assay results taken from PubChem BioAssay AID1159614 (National Center for Advancing Translational Sciences (NCATS), 2016).
Among all 45,000 compounds or so, about 65 (0.1%) were called active. Calls follow the shape of the dose curve; as a rule, active = well fitted activation curve with a large enough effect; inconclusive = small, poorly fitted or top-dose-only effect; inactive = no such curve, though single readings can be large or run the other way. The list shows a part of the results.

Each molecule was assayed against Galactocerebrosidase (Homo sapiens) (UniProt P54803) (assay: A Novel Cell-Based Assay to Identify Small Molecules for B -Galactocerebrosidase). Conditions: 145M-Twi-hGALC-G270D cells (Twitcher mouse brain line with human GALC G270D), HMU-beta-Gal fluorescence, 48 h; series mostly up to 57.5 µM; activation: at the top concentration.
Chain of UniProt P54803 (P54803 whole entry, looked up): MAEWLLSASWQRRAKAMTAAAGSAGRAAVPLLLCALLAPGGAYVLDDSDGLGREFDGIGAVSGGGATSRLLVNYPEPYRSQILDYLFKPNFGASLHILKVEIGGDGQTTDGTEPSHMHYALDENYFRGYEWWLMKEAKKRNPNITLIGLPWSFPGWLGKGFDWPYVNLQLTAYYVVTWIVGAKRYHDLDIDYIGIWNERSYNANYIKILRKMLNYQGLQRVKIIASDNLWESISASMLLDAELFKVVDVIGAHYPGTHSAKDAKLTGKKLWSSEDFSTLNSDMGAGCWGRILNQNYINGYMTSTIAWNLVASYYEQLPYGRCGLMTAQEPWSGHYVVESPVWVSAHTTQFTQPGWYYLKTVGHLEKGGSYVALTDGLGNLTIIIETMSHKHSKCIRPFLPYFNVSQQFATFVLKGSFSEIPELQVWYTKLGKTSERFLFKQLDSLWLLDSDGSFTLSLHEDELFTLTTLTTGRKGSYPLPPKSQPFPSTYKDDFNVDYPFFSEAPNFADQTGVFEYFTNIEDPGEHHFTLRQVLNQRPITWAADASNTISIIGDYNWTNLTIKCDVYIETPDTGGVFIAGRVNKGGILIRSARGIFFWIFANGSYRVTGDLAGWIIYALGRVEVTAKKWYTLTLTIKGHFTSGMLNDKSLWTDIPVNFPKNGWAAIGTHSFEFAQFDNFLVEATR
Procedure, shortened: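 Fluorogenic HMU-b-Gal hydrolysis (0.1 mM final, pH 5.2 citrate-phosphate with 1 mg/mL sodium taurocholate; carbonate stop buffer) measures mutant GALC activity after compound treatment of live 145M-Twi Twitcher brain cells stably carrying human GALC-G270D, with wild-type GALC line alongside; activation sought.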
Also: 0% is about no effect; nearly all actives have a fitted effect of over 65% in size.

Compound | activation
CCc1ccccc1Nc1nn2c(=O)c3ccc(C(=O)NC(C)C)cc3nc2s1 | inactive: -12.6%
COc1ccccc1NC(=O)CN1C(=O)C(c2ccc(F)cc2)=NC12CCCCC2 | inactive: -13.3%
COc1ccccc1N1CCN(C(=O)C2CCN(S(=O)(=O)c3cn(C)cn3)CC2)CC1 | inactive: -18.8%
COc1ccc(-c2cc(=O)c3c(O)cc(O[C@@H]4O[C@H](CO[C@@H]5O[C@@H](C)[C@H](O)[C@@H](O)[C@H]5O)[C@@H](O)[C@H](O)[C@H]4O)cc3o2)cc1O | inactive: -14.3%
CCCCc1ccc(NS(=O)(=O)c2cc3c4c(c2)CC(=O)N4CCC3)cc1 | inactive: -3.04%
COc1cccc(N2CCN(C(=O)c3cnn(-c4ccccc4Cl)c3C3CCN(C(=O)OC(C)(C)C)CC3)CC2)c1 | inactive: -16.1%
CCc1ccc2oc(-c3cc(NC(=O)c4cc(OC)c(OC)c(OC)c4)ccc3O)nc2c1 | inactive: -17.2%
CCOCCCNC(=O)c1ccc2c(=O)n(CCc3ccccc3)c(=O)[nH]c2c1 | inactive: -18.2%
CC(=O)c1ccc(NC(=O)CSc2nc(=O)n(Cc3ccccn3)c3c2CCC3)cc1 | inactive: -6.07%
COc1cccc(NC(=O)C2CCC(CNS(=O)(=O)c3csc(C(N)=O)c3)CC2)c1 (configuration not stated) | inactive: -17.6%
CCC(=O)N1CCc2cc(S(=O)(=O)NC(CC(C)C)C(=O)Nc3cccc(C)c3C)ccc21 (configuration not stated) | inactive: -6.39%
COc1ccccc1C(=O)n1nc(-c2ccccc2)nc1NCc1ccc(Cl)cc1 | inactive: -31.3%
O=C(CCc1ccccc1)NC1CC(=O)N(c2cccc(F)c2)C1 (configuration not stated) | inactive: -18%
CN(C)c1ccc(CNC(=O)CN2C(=O)C3CCCCN3c3ccc(C(=O)N4CCCC4)cc32)cc1 (configuration not stated) | inactive: -4.82%
Cc1ccc(NS(=O)(=O)c2ccc3oc(=O)c4ncn(C)c4c3c2)cc1C | inactive: -3.83%
COc1ccc(CCNc2ncnc3c2cnn3-c2ccc(C)c(Cl)c2)cc1 | inactive: -16.9%
COc1ccc(OCC(O)Cn2c(=N)n(CCN3CCCCC3)c3ccccc32)cc1 (configuration not stated) | inactive: -23.8%
O=C(CCC1N=C2c3ccccc3N=C(SCc3ccc(Cl)cc3)N2C1=O)NCc1cccs1 (configuration not stated) | inactive: -3.15%
CCC(C)NC(=O)c1cc2n(n1)CCCN(Cc1ccc(C)cc1)C2=O (configuration not stated) | inactive: -16.2%
Cc1ccc(S(=O)(=O)C(CNC(=O)C(=O)NCCc2ccc(Cl)cc2)c2ccco2)cc1 (configuration not stated) | inactive: -16.2%
Cc1ccc(N2CCN(C(=O)c3cccn4c(=O)c5ccc(Cl)cc5nc34)CC2C)cc1 (configuration not stated) | inactive: -21.1%
Cc1c2cnn(CC(=O)NCc3ccc(Cl)cc3)c(=O)c2c(C)n1Cc1ccc(F)cc1 | inactive: -5.74%
COc1ccc(CCNS(=O)(=O)c2c(C)nc3sccn3c2=O)cc1OC | inactive: -0.0078%
O=C(Cc1ccc(F)cc1)NCCc1csc2nc(-c3ccccc3F)nn12 | inactive: -10.6%

Compound | activation
Cc1ccc(Nc2nc(N)nc(CSc3nc4ccccc4s3)n2)cc1 | inactive: -6.74%
COc1ccc(C(CNC(=O)c2oc3cc(C)c(C)cc3c2C)N2CCCCC2)cc1 (configuration not stated) | inactive: -7.51%
CCn1cc(C(=O)N2CCN(c3ccccc3)CC2)c(=O)c2cc(S(=O)(=O)N(C)C)ccc21 | inactive: -24.4%
Cc1cc(C)cc(NC(=O)CSc2ccc(-c3cccs3)nn2)c1 | inactive: -6.52%
Cc1cc(NS(=O)(=O)c2ccc(NC(=O)COc3ccccc3Br)cc2)no1 | inactive: -11.8%
Cc1ccccc1Nc1nn2c(=O)c3ccc(C(=O)NCc4cccs4)cc3nc2s1 | inactive: -20.9%
COc1cc(NS(=O)(=O)c2ccc(NC(=O)c3ccc(Cl)cc3Cl)cc2)nc(OC)n1 | inactive: -10.3%
Cc1ccc2nc(-c3ccc(NC(=O)COc4ccc(Br)cc4Br)cc3)sc2c1 | inactive: -3.24%
CNC(=O)c1c(NC(=O)/C=C/c2ccccc2)sc2c1CCC2 | inactive: -0.778%
O=C(NCc1ccc(F)cc1)C(=O)NCC(c1ccc2c(c1)OCO2)N1CCOCC1 (configuration not stated) | inactive: -15.7%
COc1ccc(NC(=O)C2CCCN(S(=O)(=O)c3c(C)[nH]c(=O)[nH]c3=O)C2)c(OC)c1 (configuration not stated) | inactive: -22.6%
COc1ccc(C(=O)N(Cc2ccco2)Cc2ccc(C)o2)cc1 | inactive: -11.5%
Cc1cccc(-c2nc3nc(C)cc(NC(C)c4ccccc4)n3n2)c1 (configuration not stated) | inactive: -31.4%
CCc1ccc(NCc2cc3cc4c(cc3n(CC(=O)Nc3ccccc3C)c2=O)OCCO4)cc1 | inactive: 0.33%
Cc1ccccc1NC(=O)/C(C#N)=C/c1ccc(Cl)cc1Cl | inactive: -32.8%
Cc1nn2c(C)c(C(=O)NCCc3ccccc3)cnc2c1-c1ccccc1 | inactive: -4.56%
CCOC(=O)c1ccc(NC(=O)CC(=O)Nc2ccc3nc4n(c(=O)c3c2)CCCCC4)cc1 | inactive: -5.21%
CCOc1ccc(NC(=O)Cn2nnc(-c3nc(-c4ccncc4)no3)c2N)cc1 | inactive: -13.1%
COc1ccc(Br)cc1CNC(=O)CN1C(=O)c2cccnc2Oc2ccc(C)cc21 | inactive: 3.81%
Cc1ccc2oc(C(=O)Nc3ccc(S(=O)(=O)Nc4nccc(C)n4)cc3)cc(=O)c2c1 | inactive: -11%
CC(C)c1ccc(N(CC(=O)O)S(=O)(=O)c2ccc3[nH]c(=O)c(=O)[nH]c3c2)cc1 | inactive: 5.97%
Cc1ccc(S(=O)(=O)Cc2nc(-c3ccc(C(=O)NCCCOC(C)C)cc3)oc2C)cc1 | inactive: -15.3%
Cc1ccc2ncc3c(-c4ccc(F)cc4)nn(CC(=O)Nc4ccccc4C)c3c2c1 | inactive: -14.8%
